Results as given in PubChem BioAssay AID624170 (National Center for Advancing Translational Sciences (NCATS), 2012).
The campaign covered roughly 410,000 compounds. About 850 (0.21%) were called active. The inconclusive results got no clear call from the source; some entries with a clear call stand among them for comparison. Calls come from the whole dose curve; as a rule, active = well fitted inhibition curve with a large enough effect; inconclusive = small, poorly fitted or top-dose-only effect, or another doubt; inactive = no such curve, though single readings can be large or run the other way. Potencies of inconclusive entries are doubtful fits and often do not repeat. A structure can be active in one record and inactive in another.

molecular target: Glutaminase kidney isoform, mitochondrial (Homo sapiens) (UniProt O94925); experiment: qHTS for Inhibitors of Glutaminase (GLS); conditions: GLS enzymatic activity, qHTS titration; series mostly up to 45.5 µM; activity change, negative = inhibition: at the top concentration
How it was run: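 Human kidney-isoform GLS in 45 mM KH2PO4 pH 8.2, 0.02% Tween-20, with compound, started with 1mM L-Glutamine (added stock). Glutamate oxidase/HRP/Amplex red coupled fluorescence read at start and after 30 min at RT.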
% is set by controls: 0 for no effect and ±100 for the full control effect; potency is the fitted concentration of half-maximal effect; tags give direction and shape of the fitted curve.

Chain of UniProt O94925 (O94925 whole entry, looked up, canonical isoform): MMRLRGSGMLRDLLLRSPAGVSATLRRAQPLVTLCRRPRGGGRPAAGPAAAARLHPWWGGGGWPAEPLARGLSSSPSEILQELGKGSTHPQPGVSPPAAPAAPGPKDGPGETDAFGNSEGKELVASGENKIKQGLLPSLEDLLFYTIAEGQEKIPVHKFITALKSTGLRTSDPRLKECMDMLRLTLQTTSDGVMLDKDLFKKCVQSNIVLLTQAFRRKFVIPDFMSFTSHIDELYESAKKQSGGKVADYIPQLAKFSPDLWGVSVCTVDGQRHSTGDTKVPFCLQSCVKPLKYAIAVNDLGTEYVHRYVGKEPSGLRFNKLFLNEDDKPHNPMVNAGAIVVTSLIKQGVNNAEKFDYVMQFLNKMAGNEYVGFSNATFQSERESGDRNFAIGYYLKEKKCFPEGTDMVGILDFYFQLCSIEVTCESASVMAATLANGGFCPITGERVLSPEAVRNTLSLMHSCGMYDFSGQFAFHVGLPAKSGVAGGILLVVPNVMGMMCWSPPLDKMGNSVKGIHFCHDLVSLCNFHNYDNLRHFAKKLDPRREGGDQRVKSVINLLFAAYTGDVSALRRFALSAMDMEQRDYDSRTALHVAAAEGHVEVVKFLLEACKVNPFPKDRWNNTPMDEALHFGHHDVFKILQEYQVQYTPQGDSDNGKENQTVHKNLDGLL

Potency, inconclusive:
COc1ccccc1-n1c(-c2ccccc2)n[nH]c1=S 25.1 µM [inhibitor, single point]
CCN(CC)C(=O)[C@H]1CC(CC(=O)NCC23CC4CC(CC(C4)C2)C3)C(=O)N2CCc3c([nH]c4ccccc34)[C@]12C (some centres not stated) 35.5 µM [inhibitor, partial curve, poor fit]
N#CCSc1nc2c(c(=O)n1Cc1ccco1)C1(CCCC1)Cc1ccccc1-2 5.62 µM [inhibitor, single point]
CCOC(=O)C1=C(C)N(C)C(=O)C1CC(=O)O (configuration not stated) 35.5 µM [inhibitor, single point]
O=c1cc(O)c2ccccc2n1Cc1ccccc1Cl 3.16 µM [inhibitor, single point]
CS(=O)(=O)N(CC(=O)Nc1cc(Cl)ccc1Cl)c1ccccc1 35.5 µM [inhibitor, single point]
CCOc1ccc(/C=C2\SC(=S)N(CCC(=O)Nc3ccc(C(=O)O)cc3)C2=O)cc1 11.2 µM [inhibitor, single point]
COc1ccccc1N1CCN(C(=O)c2oc3ccccc3c2N)CC1 35.5 µM [inhibitor, single point]
COc1ccc(S(=O)(=O)Nc2cc(SCC(=O)O)c(O)c3ccccc23)cc1 35.5 µM [inhibitor, single point]
Cc1ccc(C(=O)CC(=O)c2ccccc2C)c(O)c1 11.2 µM [inhibitor, partial curve, poor fit]
CC(C)(C)OC(=O)N1CCC(c2c(C(=O)NCc3ccccn3)cnn2-c2ccccc2Cl)CC1 3.55 µM [inhibitor, single point]
Cc1ccnc(NC(c2cc(C)ccc2O)c2ccc3cccnc3c2O)c1 (configuration not stated) 14.1 µM [inhibitor, single point]
COc1cc(/C=N/Nc2cc(C)nc(NS(=O)(=O)c3ccccc3)n2)ccc1O 31.6 µM [inhibitor, single point]
COc1cc(-c2cc(=O)c3c(O)c(OC)c(OC)cc3o2)cc(OC)c1O 12.6 µM [inhibitor, single point]
O=C(O)Cc1c[nH]c2cccc(O)c12 1.78 µM [inhibitor, partial curve, poor fit]
CC(=O)N(\C=C/C=C/C=C1\Sc2ccccc2C1=O)c1ccccc1 22.4 µM [inhibitor, single point]
CCOC(=O)NC1(Nc2cccc(Cl)c2)Oc2ccccc2O1 35.5 µM [inhibitor, single point]
C/C(=N/NC(=O)CNC(=O)c1ccccc1F)c1ccc2c(c1)CCCC2 14.1 µM [inhibitor, single point]
Cc1[nH]c2ccccc2c1/C=N/NC(=O)CCC(=O)NCc1ccccc1 22.4 µM [inhibitor, single point]
Cc1cccc(C)c1OC(=O)CCN1C(=O)C2C3C=CC(C4CC34)C2C1=O (configuration not stated) 35.5 µM [inhibitor, single point]
C=CCn1c(C(CCC(C)C)CC(C)(C)O)n[nH]c1=S (configuration not stated) 11.2 µM [inhibitor, partial curve]
COc1cc(/C=N/Nc2ccc(Cl)c(C(=O)O)c2)ccc1OCC(=O)N1C(C)CCCC1C (configuration not stated) 20 µM [inhibitor, single point]
COc1cccc(NC(=O)COc2ccc(C)cc2)c1 35.5 µM [inhibitor, single point]
COc1ccc(C2CC(C)=C(C#N)S(=O)(=O)C2C#N)cc1 (configuration not stated) 12.6 µM [inhibitor, single point]
CN1CCc2c(sc(/N=C/c3cccs3)c2C(N)=O)C1 12.6 µM [inhibitor, partial curve]
COc1ccc(-c2nc3c(C#N)c[nH]n3c2NC2CCCCC2)c(OC)c1 14.1 µM [inhibitor, single point]

Potency, active:
C[c-]1[c-](C)[c-](C)[c-](C)[c-]1C.[Fe].c1cc2nccc(N3CCCC3)[c-]2c1 (configuration not stated) 12.6 µM

Activity change, negative = inhibition, inactive:
Cc1csc2ncnc(N3CCN(C(=S)Nc4ccc(F)cc4F)CC3)c12 9.02%
O=C1/C(=C/c2cccnc2)Oc2cc(OS(=O)(=O)c3ccccc3)ccc21 -6.42%
O=C1CCC[C@@H]2[C@H]3CCC[N+]4([O-])CCC[C@@H](CN12)[C@@H]34 (some centres not stated) -9.14%
O=C(CSc1nnc(-c2ccco2)o1)c1ccccc1 8.42%
COc1ccc(-n2c(COc3ccccc3)n[nH]c2=S)cc1 -23.9%
CC1CCCN(S(=O)(=O)c2ccc3c(c2)CCN3C(=O)C2CCC2)C1 (configuration not stated) 5.64%
CC(C)(C)c1cnnn1-c1ccc(C=O)cc1 7.22%
CC(=O)c1cccc(NC(=O)c2cc(C(C)C)on2)c1 -3.67%
COc1cc(NC(=O)c2onc(C)c2Cl)c(OC)cc1Cl 1.5%
O=C(NC1(O)C(=O)c2ccccc2C1=O)c1ccccc1 2.96%
O=C(Nc1ccccc1)C(Cl)C(=O)c1ccccc1 (configuration not stated) -4.38%
CC(C)c1nnc(NC(=O)c2ccc(N3C(=O)CCC3=O)cc2)s1 -3.36%
Cc1cc(Br)c(NC(=O)COC(=O)CC2CC3CCC2C3)c(Br)c1 (configuration not stated) -16.5%
CN1CCN(S(=O)(=O)c2ccc(Nc3ccc(F)cc3)c([N+](=O)[O-])c2)CC1 2.21%
Cc1cc(S(=O)(=O)Nc2ncnc3sccc23)ccc1F -5.04%
COc1ccccc1Cc1nnc(NC(=O)C2CCN(C(=O)c3ccco3)CC2)s1 -16.2%
CN(C)S(=O)(=O)N(CC(=O)NCCSc1ccc(Cl)cc1)c1ccccc1 -0.788%
CCOC(=O)CN1N=C(/C=C/c2ccc(OCC)cc2)CCC1=O -3.6%
COc1cc(C2Nc3ccccc3-c3nnc(SCc4ccc(Cl)cc4)nc3O2)ccc1OCC(=O)O (configuration not stated) 13.9%
Cn1c(N)c(C(=O)CSc2nnc(C3CC3)n2N)c(=O)n(C)c1=O -1.97%
